Measurements taken from the supplement of paper PMC11417369.
± gives the standard deviation of the averaged measurements. The list shows a part of the results.

These sequences were tested on PfAP2-LT AP2 domain (GST-tagged) (assay: gcPBM binding intensity (ln(normalized median fluorescence intensity)); higher = stronger DNA binding).
Procedure, shortened: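 After 1 h on an Agilent 4 × 180k array of primer-extended double-stranded 36-bp intergenic genomic probes and negative controls, bound GST-tagged P. falciparum DNA-binding domains were detected with Alexa488 anti-GST antibody and scanned at 488 nm. The domains had been expressed in E. coli, and binding took place in 1× PBS with 1% milk, 0.2 mg/ml BSA, 0.5% salmon testes DNA and 0.03% Triton X-100. Binding intensity is the highest Masliner-normalised natural-log median intensity across replicate spots of either probe orientation.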

Row | Sequence | gcPBM binding intensity (ln)
1 | ATATTTCATTAATGAACACACAAAGAGGTATATAAA [CACACA_site1519] | 8.91 ± 0.41
2 | AGCTCTCAAAATTATTCACACGTGTCCTGTTATATA [CACACA_site5415] | 9.66 ± 0.35
3 | TTTTTTCTTTTATGTGAAATGTAATATTGTTATATA [GTGCAC_negctrl_site715] | 8.51 ± 0.52
4 | TGTTTATTTAATAATATTTTTTTTTTTATTATATTA [XGTACX_negctrl_site56] | 8.31 ± 0.54
5 | AGGTGATTGATATATACACACATACCTATATTTATA [CACACA_site7348] | 9.07 ± 0.35
6 | TTATTAAAATATTCTAGTACATATAAAAGGAGAACA [XGTACX_site4374] | 8.61 ± 0.28
7 | GTGCTTATTTATACATGTACAAATGATAAGTTTGTA [XGTACX_site169] | 8.87 ± 0.38
8 | TAAATATATTCATAAAGTACAAAGCAAAATTGTCTA [XGTACX_site7274] | 8.69 ± 0.45
9 | GAAATAAATATATATGCATGTACTTTAATATTATTA [TGCATGCA_site904] | 8.96 ± 0.75
10 | ATATAAAGAAAAGGAACACACAAATATATATATATA [CACACA_site463] | 9.56 ± 0.25
11 | ATATATTATTTTAAATGTACTCATAATAGAAATGTC [XGTACX_site40] | 8.49 ± 0.41
12 | CACACAGGTAAAAAGGTGCAGTTGAAATATTCCTCA [GTGCAC_site9730] | 8.91 ± 0.52
13 | AAAAAAAAAAAAAAATGTACATATATATATATATAT [XGTACX_site876] | 9.7 ± 0.2
14 | ACATATACAAGACACACACACAACGTTTTAATAAAT [CACACA_site7017] | 9.79 ± 0.35
15 | ATAATAATATTGTGTACACAATAATTTGTCAAATCA [CACACA_site6019] | 8.79 ± 0.43
16 | AAAAAATAATAATAATGTACAAATAAAATAAAAACA [XGTACX_site6568] | 9.06 ± 0.54
17 | AAGGAATATGTATATACACACAGGTACATATATATA [CACACA_site441] | 9.35 ± 0.39
18 | ATAAAAATTGAAACATGTACACATATTCATTTTATA [XGTACX_site7968] | 8.59 ± 0.48
19 | TCGTGTGAAAATATTACACACATTTACTATAGTATC [CACACA_site7590] | 9.07 ± 0.32
20 | ATATATTTTTACCATACACACATATAATAAATATAT [CACACA_site3722] | 8.91 ± 0.46
21 | TTATATTATACATACACACCCATATAACATGTTTTT [CACACA_site6539] | 9.04 ± 0.49
22 | TCATTAATATTTCATAGTACAATTTTGTCTAATTGT [XGTACX_site6720] | 8.64 ± 0.51
23 | TATTTTTTTCTTACTACACACATATATATGCTTTCC [CACACA_site4058] | 9.24 ± 0.55

Row | Sequence | gcPBM binding intensity (ln)
24 | AATGGAAAAAAAAAAATAAATACAAATAAATACAAA [GTGCAC_negctrl_site407] | 8.71 ± 0.6
25 | TCTTATTAAAATATTTATATAGGTAATCACAATATT [GTGCAC_negctrl_site568] | 8.69 ± 0.45
26 | AGAAATAAGAAATATACACACATATATATATATATA [CACACA_site2808] | 9.76 ± 0.085
27 | CCCCCCGTGTTATATACACACATAATCAAATAAAAT [CACACA_site4111] | 11.1 ± 0.44
28 | TATAAAATAAGACATGCATGTTATACATATATATAT [TGCATGCA_site314] | 9.13 ± 0.35
29 | TTTTGTTATGAGAGGGTGCTAATATTTGGATATAAA | 8.54 ± 0.39
30 | AAAAAAAGAAAAATTGCACACACTTATAAAAATATA [CACACA_site4014] | 8.97 ± 0.51
31 | AAAAAAAAAAAAAGTAGTACATAATATGTTCCTCCT [XGTACX_site8356] | 8.71 ± 0.43
32 | ATTATAAATTAAAATACACACATATATACCTAATAT [CACACA_site5541] | 8.93 ± 0.38
33 | ATATATAATTACACAAATAAAAAAATAAAATGAAAT [CACACA_negctrl_site1513] | 8.8 ± 0.53
34 | AGAATAAAAATACAAGCACACATGTATGAAATATAT [CACACA_site3213] | 9.46 ± 0.52
35 | TGAACAATGTATAATTGTACGCAACGAAAATAAAAA [XGTACX_site1559] | 8.96 ± 0.38
36 | ATCATGTTATATATGTGTACATATATATGATATAAT [XGTACX_site991] | 8.85 ± 0.33
37 | ACAAAATATACAAAATGTACAAAATTTACAAAATAT [XGTACX_site6466] | 8.96 ± 0.52
38 | AGCACAAGCACAAGCACACATTTATATATAAATACA [CACACA_site4642] | 9.1 ± 0.47
39 | AAAAAAAAAAATAAAGAAATCAAAATTGATGAATAA [GTGCAC_negctrl_site692] | 8.49 ± 0.67
40 | TATAAATATACACCCACACACATATATATATATATA [CACACA_site3745] | 9.94 ± 0.16
41 | TGTGTAAACATATTCACACACATAAATTCGCATATA [CACACA_site6961] | 9.29 ± 0.38
42 | TATATAAAAAATAAATGTACACATGTAATAATAAAA [XGTACX_site2640] | 8.98 ± 0.47
43 | TAAATGATTGCATAATGTACATATAATTTTTTTTTT [XGTACX_site1988] | 8.53 ± 0.4
44 | ATATGAACAAAATAAATCTCTTCAAAAATAATGTTC [GTGCAC_negctrl_site2] | 8.62 ± 0.43
45 | TATATATATTTATGCTGTACCAAATAAGAATAGAAA [XGTACX_site7731] | 8.69 ± 0.35
46 | ATTTTTGTACACTTCTTTTTTTTTTTTCTTTTATGT [CACACA_negctrl_site1323] | 9.2 ± 0.57

Row | Sequence | gcPBM binding intensity (ln)
47 | TACTTACATATAATAACACACAAGAAAAAAATAAAA [CACACA_site1033] | 8.94 ± 0.47
48 | TACCCATGCATTTTTGCACACACATATATATATAAA [CACACA_site1429] | 9.39 ± 0.34
49 | AGACAGCGCACAAACACACAAACACCCACCCACATA [CACACA_site451] | 10.1 ± 0.16
50 | ATTTATTATGAACATACACACAAAAAAAAAAAGTAT [CACACA_site2054] | 9.2 ± 0.42
51 | TAACTTTGAAAAGATGGTACACAATAATATATATAT [XGTACX_site8667] | 8.83 ± 0.35
52 | ATTGTTATTTATTGTGTGCGCATTAATACATACATA [GTGCAC_site9982] | 9.43 ± 0.37
53 | TAATGTTGAGAATTTTGTACATATAGATCAATTTAT [XGTACX_site5426] | 8.58 ± 0.31
54 | AATCAATTAATATTAGCATAAAATTTTATTATTTTG [XGTACX_negctrl_site479] | 8.48 ± 0.5
55 | TGACATAAAAAATATACACACTATAATATATATACT [CACACA_site4898] | 8.97 ± 0.44
56 | ATAATATGTATGGTCACACAGACAAGGAAAGAATAA [CACACA_site5164] | 9.18 ± 0.55
57 | TGTATCCATATTTGTTCACACACACCCATATTTATA [CACACA_site9190] | 9.46 ± 0.38
58 | GTATATTTTAATATGACACACATATTATATATATAT [CACACA_site2483] | 9.01 ± 0.35
59 | TAAAATAATACAAAATGTACAAAATTTACAAAATGT [XGTACX_site3541] | 8.83 ± 0.55
60 | ATGTAAATTAAACATGGTACACATTATACAAAATTA [XGTACX_site5675] | 8.99 ± 0.52
61 | AATATAGAACAATGTTGTACATATAATAATCTTATA [XGTACX_site4671] | 8.76 ± 0.49
62 | AATATTAAAAACAAAACACACAAAAAAAAATAAACT [CACACA_site6470] | 9.17 ± 0.49
63 | ATTAACACTGAAAAATGTACATATATAAATATAAGC [XGTACX_site8222] | 9.05 ± 0.47
64 | AACGATATCTGTACTACACACATTATGTCATCCTAT [CACACA_site5374] | 9.46 ± 0.37
65 | TCATTATTATTCCTCACACATATATATATATATATT [CACACA_site4375] | 9.18 ± 0.38
66 | AGCACACCCACAAAAACACACACAAAGGTGTTCTTA [CACACA_site8355] | 9.39 ± 0.42
67 | CACTTTTCATATATGACACACAAAAAATTAATAAAA [CACACA_site3639] | 8.7 ± 0.45
68 | GCATGTATAATGGTAGTGCATATAATAATATAATAA [GTGCAC_site9548] | 8.96 ± 0.54
69 | ATTTTGTTCGAAAGGTGTACATATACAAAAATTATG [XGTACX_site957] | 8.79 ± 0.47

Row | Sequence | gcPBM binding intensity (ln)
70 | TAATAATAAAAATAAACACACATATAGATGTATATA [CACACA_site7360] | 8.82 ± 0.38
71 | ATTGCTTTTCTTTTTGCACACTTATGCATATATATA [CACACA_site2584] | 9.36 ± 0.33
72 | ATATCGTATATGAGTGGTACTAATATGTAAAAAAAA [XGTACX_site7830] | 8.88 ± 0.53
73 | TATTATCTCTTATGAACACACATTTTTATTTTCAAA [CACACA_site3353] | 8.67 ± 0.45
74 | ATATAAGTATTTTGAATGCACTTTCTTTTTTTTTTT | 8.55 ± 0.47
75 | ACTGAAAAAAGAAATACACACATTCTGGATCATATA [CACACA_site3860] | 9.05 ± 0.44
76 | TTATAAAATAATTAATGTACGTTTATGTGTATCGAA [XGTACX_site6117] | 8.52 ± 0.51
77 | AAAGTTATAATACGTACACACCTTATCTTTTTGGCT [CACACA_site6267] | 9.09 ± 0.49
78 | ATATATATGAAAATATGTACATATATATATATATAA [XGTACX_site7550] | 9.28 ± 0.23
79 | TTTATGGGTATGTTTACACACATAAAAAAATATATG [CACACA_site5646] | 8.94 ± 0.35
80 | TTACATATTTATGATTGTACACATTTATAAACAATA [XGTACX_site2190] | 8.47 ± 0.4
81 | TTAATATTGTTATAGCGTACAAATAAACATATTAAA [XGTACX_site8153] | 8.62 ± 0.38
82 | TGATTCTAACTTATGGTGCAACATTATGGACACCGT | 8.67 ± 0.44
83 | TATTTAAAAATAAAATGTACATATTATTATGCATTA [XGTACX_site1303] | 8.48 ± 0.41
84 | ATTATACACGCGCGCACACACAACAAAAAAAAAAAA [CACACA_site7630] | 9.43 ± 0.48
85 | ATAATAATAAAGTGAACACACACATATAATATATAT [CACACA_site9378] | 9.27 ± 0.42
86 | TGGTAACAGCATAGAAAATGGACAAACGAAATATAA [GTGCAC_negctrl_site537] | 8.97 ± 0.61
87 | TAAATAAACAAATTAACACACAGAATTTTTTTTTTC [CACACA_site1674] | 8.62 ± 0.46
88 | AAAAGCTATAAAAATCGGTAATTTATAACAGGAATT [CACACA_negctrl_site469] | 8.74 ± 0.46
89 | AATGTTAAGGAGGGGAGTACATAAAATTCTCTCTCC [XGTACX_site1990] | 8.69 ± 0.37
